Screen size: about 410,000 compounds; about 530 (0.13%) were called active. Inconclusive means that the source gave no clear call. Such entries were picked first, then a sample of the others. The call rests on the fitted dose curve; in most records, active means well fitted inhibition curve with a large enough effect; inconclusive means small, poorly fitted or top-dose-only effect, or another doubt; inactive means no such curve, though single readings can be large or run the other way. Potencies of inconclusive entries are doubtful fits and often do not repeat.
Assay: qHTS of GLP-1 Receptor Inverse Agonists: Cytotox Screen
Details: HEK293 cAMP-luciferase reporter cells, luminescence, 24 h; series mostly up to 38.3 µM
Procedure, shortened: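 Here, cytotoxicity is scored as loss of luminescence. The MLSMR collection was tested on cells seeded in medium containing 10% Nu serum, with a 24 hr compound exposure preceded by 12 hours of culture.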
In the case of `OC(COc1c(F)cc(Br)cc1F)CN1CCc2ccccc2C1` (stereo not drawn), the Potency was “inactive”.
With `O=C(CCc1ccccc1)NC(NC(=S)Nc1ccc(Br)cc1)C(Cl)(Cl)Cl` (stereo not drawn) the Potency was inconclusive: 28.2 µM [inhibitor, single point].
With `CCc1ccccc1NC(=O)c1nc2nc(C)cc(C(F)F)n2n1` the Potency was “inactive”.
For `COc1ccc2cc1Oc1ccc(cc1)C[C@H]1c3c(cc4c(c3Oc3cc5c(cc3OC)CCN(C)[C@@H]5C2)OCO4)CCN1C`, the Potency was inconclusive: 12.6 µM [inhibitor, partial curve, poor fit].
For `Cn1c(-c2cccc(Br)c2)cnc1NCc1cccc(F)c1`, the Potency was inconclusive: 14.1 µM [inhibitor, partial curve, poor fit].
In the case of `CC(=O)c1c(C)[nH]c(C(=O)CSc2nnc(-c3ccco3)n2Cc2ccccc2)c1C`, the Potency was inconclusive: 10 µM [inhibitor, single point].
For `Cc1ccc2cc(CN(CCN3CCCC3)C(=O)Nc3ccc(F)cc3)c(=O)[nH]c2c1C`, the Potency was inconclusive: 31.6 µM [inhibitor, single point].
For `CCCS(=O)(=O)c1c(S(=O)(=O)CCC)c2cc(C(C)(C)C)ccn2c1C(=O)c1ccc(C)cc1`, the Potency was “inactive”.
In the case of `COCCNC(=S)N/N=C(\C)c1ccc(OC(F)F)cc1`, the Potency was inconclusive: 28.2 µM [inhibitor, single point].
In the case of `Cc1c(Cl)cccc1NC(=S)NCc1cccs1`, the Potency was inconclusive: 12.6 µM [inhibitor, single point].
With `COC(=O)C1(C(=O)OC)C[C@H](/C=C/c2ccccc2)N(Cc2ccccc2OC)[C@@H]1c1cccs1` the Potency was “inactive”.
For `CCCC[n+]1ccn(C2=C([O-])c3ccccc3C(=O)/C2=N\S(=O)(=O)c2ccccc2)c1`, the Potency was inconclusive: 10 µM [inhibitor, partial curve, poor fit].
For `CCS/C(N)=N/N=C/c1cc(C)ccc1O`, the Potency was inconclusive: 2.51 µM [inhibitor, full curve, poor fit].
For `O=C(N/N=C/c1ccc(Br)s1)c1ccccn1`, the Potency was inconclusive: 28.2 µM [inhibitor, single point].
With `CN(C)C(=S)NC(=O)C(c1ccccc1)c1ccccc1` the Potency was inconclusive: 22.4 µM [inhibitor, partial curve, poor fit].
With `Cc1cc(C)nc(Nc2ccc(N3CCOCC3)cc2)n1` the Potency was “inactive”.
For `CC1=C/C(=C(/c2ccc(O)c(C)c2)c2ccccc2S(=O)(=O)O)C=CC1=O`, the Potency was inconclusive: 12.6 µM [inhibitor, partial curve, poor fit].
With `CC1(C(=O)NS(=O)(=O)c2cccs2)CCN1C(=O)CC1CC1` (stereo not drawn) the Potency was “inactive”.
In the case of `Cc1ccc(CSc2nccc(-c3c(C)nc4ccccn34)n2)cc1`, the Potency was inconclusive: 15.8 µM [inhibitor, partial curve, poor fit].
For `CCN(CC)c1ccc2cc(C(N)=O)c(=O)oc2c1`, the Potency was “inactive”.
In the case of `CN(c1ccccc1)c1ccc(/C=C(\C#N)c2nnc3n2CCCCC3)cc1[N+](=O)[O-]`, the Potency was inconclusive: 10 µM [inhibitor, single point].
For `CNC(=O)c1cc2cc(OC)ccc2n1CCN(Cc1ccccc1)Cc1ccccc1`, the Potency was “inactive”.
For `S=C(NC1CC1)NC1CCCc2ccccc21` (stereo not drawn), the Potency was inconclusive: 28.2 µM [inhibitor, single point].
In the case of `N#Cc1c(-n2ncnc2-c2ccccc2Cl)sc2c1CCCCC2`, the Potency was “inactive”.
With `CCOC(=O)c1ccc(N2C(=O)c3n[nH]c(-c4cccs4)c3C2c2cccc(O)c2)cc1` (stereo not drawn) the Potency was inconclusive: 10 µM [inhibitor, partial curve, poor fit].
With `CC1CCCN(c2ccc([N+](=O)[O-])cc2C(=O)c2ccccc2)C1` (stereo not drawn) the Potency was inconclusive: 1.26 µM [inhibitor, full curve, poor fit].
For `CCC1CCCCN1C(=S)NC(=O)c1cc(S(=O)(=O)N2CCOCC2)ccc1C` (stereo not drawn), the Potency was inconclusive: 12.6 µM [inhibitor, partial curve, poor fit].
With `O=C(N/N=C/c1ccc(-c2ccccc2[N+](=O)[O-])o1)[C@H]1C[C@@H]1c1ccccc1` the Potency was inconclusive: 15.8 µM [inhibitor, partial curve, poor fit].
With `Cc1ccc(CNC(=O)CCc2c(C)c3cc4c(C)coc4cc3oc2=O)cc1` the Potency was “inactive”.
With `CC(C)C(=O)Nc1nnc(NC(=S)Nc2ccccc2)s1` the Potency was inconclusive: 10 µM [inhibitor, single point].
With `CCN(CC)CCNC(=S)Nc1ccc2nc(N3CCOCC3)cc(C)c2c1` the Potency was inconclusive: 11.2 µM [inhibitor, partial curve, poor fit].
In the case of `Cc1ccc(-c2cc(C(=O)N/N=C/c3c[nH]c4ccccc34)[nH]n2)cc1`, the Potency was inconclusive: 14.1 µM [inhibitor, single point].
In the case of `Cc1ccccc1NC(=O)c1sc2nc3n(c(=O)c2c1C)N=C(c1ccccc1)CS3`, the Potency was “inactive”.
With `CCCNS(=O)(=O)c1ccc(OCC(=O)N2CCN(c3ccccc3)CC2)cc1` the Potency was “inactive”.
With `Cc1nc(-c2ccc(NC(=O)C(C)(C)C)cc2)c(-c2ccccc2)o1` the Potency was “inactive”.
In the case of `COc1cccc(CNc2sc3c(c2C(=O)Nc2ccc(OC)cc2OC)CCC3)c1`, the Potency was “inactive”.
In the case of `COc1ccccc1-c1oc2ccccc2c1C#CCCCCO`, the Potency was inconclusive: 31.6 µM [inhibitor, single point].
In the case of `CCCCNc1c(-c2cccc(-c3cc(C(C)=O)cs3)c2)nc2cc(C)ccn12`, the Potency was inconclusive: 28.2 µM [inhibitor, single point].
In the case of `O=C1CS/C(=N/N=C2C3CC4CC(C3)CC2C4)N1`, the Potency was inconclusive: 12.6 µM [inhibitor, partial curve, poor fit].
For `CC(C)CCNC(=S)Nc1ccc(Br)cc1`, the Potency was inconclusive: 28.2 µM [inhibitor, single point].
For `C/C(CS(=O)(=O)c1ccc(Cl)c(Cl)c1)=N/NC(N)=S`, the Potency was inconclusive: 10 µM [inhibitor, single point].
For `CCCN(CCC)CCCNC(=O)c1ccc2c(Cl)c3c(nc2c1)CCC3`, the Potency was inconclusive: 25.1 µM [inhibitor, single point].
In the case of `Cc1ccc(-n2c(Cc3ccccc3)n[nH]c2=S)c(C)c1`, the Potency was inconclusive: 28.2 µM [inhibitor, single point].

Source: PubChem BioAssay AID624418 (National Center for Advancing Translational Sciences (NCATS), 2012)
Potency means the concentration at half of the fitted maximal effect.
